Laboratory results from PubChem BioAssay AID1963576 (National Center for Advancing Translational Sciences (NCATS), 2024).
About 60 (0.1%) of roughly 46,000 compounds were called active. Roughly 3% stayed inconclusive and do not appear here. Calls follow the shape of the dose curve; as a rule, active = well fitted inhibition curve with a large enough effect; inconclusive = small, poorly fitted or top-dose-only effect; inactive = no such curve, though single readings can be large or run the other way. This is one part of the list.

assay: Primary qHTS assay for Inhibitors of ovarian cancer metastasis using an organotypic tumor microenvironment (TME) model.; also: nearly all actives have a fitted effect of over 65% in size;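 as to activity change, negative = inhibition: plate controls were DMSO wells for no effect and tomatine positive control wells for full effect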; settings: SKOV3ip1-GFP adhesion/invasion on 3D omental model, fluorescence; series mostly up to 45.8 µM; activity change, negative = inhibition: at the top concentration
Summary of the method: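 qHTS, 4-pt dose (0.36-46 umol/L); SKOV3ip1-GFP, 1,200 cells/well, no FBS; primary omental fibroblast/mesothelial co-culture 48 h pre-grown; 2 h RT + 16 h 37 C; PBS wash, 4% PFA; GFP count 488/509 nm.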

Row | SMILES | activity change, negative = inhibition | outcome
1 | CCOc1ccc(C(=O)c2cn(Cc3ccccc3OC)c3ccc(F)cc3c2=O)cc1 | inactive: 2.13% | 
2 | COc1ccc(S(=O)(=O)N2CCC(Oc3ccc(-n4cnnn4)cc3)CC2)cc1OC | inactive: -3.31% | 
3 | CC(=O)Nc1ccc(NC(=O)CSc2nc3ccccc3nc2N2CCOCC2)cc1 | inactive: -1.78% | 
4 | CCOc1ccc(N(CC(=O)NCc2ccccc2Cl)S(=O)(=O)c2c(C)[nH]c(=O)[nH]c2=O)cc1 | inactive: -9.97% | 
5 | Oc1c(C(c2ccccc2Cl)N2CCCC2)sc2nc(-c3ccco3)nn12 (configuration not stated) |  | inactive
6 | Cc1ccc(CNC(=O)CSc2cc(C)[nH]c(=O)n2)cc1 |  | inactive
7 | O=C(NCc1ccco1)c1ccc2c(c1)N(Cc1cccc(Cl)c1)C(=O)c1ccccc1S2(=O)=O | inactive: 4.08% | 
8 | COc1ccc(-c2noc(CNC(=O)c3ccco3)n2)cc1 | inactive: -11.6% | 
9 | Cc1nn(-c2ccccc2)c2nc(C3CC3)cc(C(=O)Nc3ccccc3F)c12 | inactive: -47.6% | 
10 | COc1ccc(C2C(=O)N(C3CCCCCC3)CC(=O)N2Cc2ccc(C)cc2)cc1OC (configuration not stated) |  | inactive
11 | Cc1ccccc1C(=O)Nc1nnc(S(=O)(=O)N2c3ccccc3CC2C)s1 (configuration not stated) | inactive: 0.325% | 
12 | CN1C(=O)c2ccccc2Sc2ccc(NC(=O)COc3ccc(F)cc3)cc21 | inactive: -21.8% | 
13 | Fc1ccc(CN2CCc3nc(Nc4ccccc4)ncc3C2)cc1F | inactive: 1.14% | 
14 | COc1ccc(CCNc2ncnc3c2cnn3-c2ccc(C)cc2)cc1 | inactive: 2.3% | 
15 | COc1ccc(C(c2c(O)cc(C)n(Cc3ccco3)c2=O)N2CCCCC2)cc1OC (configuration not stated) | inactive: -3.05% | 
16 | COc1cc(C(=O)N2CCC(c3nc4ccccc4o3)CC2)cc(OC)c1OC |  | inactive
17 | Cc1c(NS(=O)(=O)c2ccccc2)cc(C(C)C)c(O)c1S(=O)(=O)c1ccc(Cl)cc1 |  | inactive
18 | CC1CCN(C(=O)CSc2nc(-c3ccccc3)no2)CC1 | inactive: -14.8% | 
19 | CCOc1cccc(CC(=O)N2CCc3c([nH]c4ccccc34)C2c2ccc(Cl)cc2)c1OCC (configuration not stated) | inactive: 0.767% | 
20 | COc1cc(Cl)c(C)cc1NC(=O)c1ccc2c(Cl)c3c(nc2c1)CCC3 | inactive: -14.9% | 
21 | O=C(Cn1cc(SCc2cccc(Cl)c2)c2ccccc21)N1CCCCCC1 | inactive: -2.99% | 
22 | CCc1ccc(Oc2c(C(F)(F)F)oc3c(CN4CCN(C)CC4)c(O)ccc3c2=O)cc1 | inactive: -0.836% | 
23 | CCOc1ccccc1NC(=O)c1c(NC(=O)c2ccccc2)sc2c1CCCC2 | inactive: 18.5% | 
24 | CCOc1ccccc1CNC(=O)c1cnc2sc(N3CCCCCC3)nn2c1=O |  | inactive

Row | SMILES | activity change, negative = inhibition | outcome
25 | COc1cccc(C(=O)NCc2nc(-c3ccccc3)no2)c1OC |  | inactive
26 | COc1ccc(-n2ccn(CC(=O)NCCc3ccccc3)c(=O)c2=O)cc1OC | inactive: 8.05% | 
27 | COc1ccccc1CN(Cc1ccco1)c1cnc(S(C)(=O)=O)nc1C(=O)Nc1cc(C)ccc1C | inactive: 2.48% | 
28 | COc1cccc(CNC(=O)Cn2ncc3c4ccccc4n(Cc4ccccc4)c3c2=O)c1 | inactive: -16.9% | 
29 | O=C(NCCc1csc2nc(-c3ccc(F)cc3)nn12)c1cccc(C(F)(F)F)c1 | inactive: 1.19% | 
30 | CC(C)(C)c1ccc(-c2nc3cc(NC(=O)c4cccc(Br)c4)ccc3o2)cc1 | inactive: 5.81% | 
31 | CCc1ccc(S(=O)(=O)NCCc2csc3nc(-c4ccccc4)nn23)s1 |  | inactive
32 | COc1ccc(Cn2c(SCc3ccc(C(=O)NC4CCCC4)cc3)nc3cccnc32)cc1 | inactive: 3.45% | 
33 | Cc1cccc(NC(=O)CCc2c(C)nc3nc(CNC(=O)c4cccc(F)c4)nn3c2C)c1 | inactive: 2.87% | 
34 | Cn1c(=O)c2c(ncn2CC(=O)Nc2cccc(C(F)(F)F)c2)n(C)c1=O | inactive: -3.06% | 
35 | O=C(Cn1c(=O)n(Cc2ccc3c(c2)OCO3)c(=O)c2oc3ccccc3c21)Nc1ccc(F)cc1 |  | inactive
36 | COc1ccc(-c2noc(CSc3nnc(-c4ccncc4)n3-c3ccc(C)cc3)n2)cc1OC |  | inactive
37 | CC1CCCCN1C(=O)Cn1c(SCC(=O)N(C)c2ccccc2)nc2ccccc21 (configuration not stated) | inactive: 15% | 
38 | CCn1cc(CNC(=O)c2cc(-c3ccc(C)c(C)c3)nc3ccccc23)c(C)n1 | inactive: 1.88% | 
39 | COC(=O)c1ccccc1NC(=O)c1cc2nc(-c3ccc(OC)cc3)cc(C(F)(F)F)n2n1 |  | inactive
40 | O=C(Cn1nc2c(cc1=O)CCCC2)Nc1ccccc1C(F)(F)F | inactive: -11.6% | 
41 | Cc1ccc(NC(=O)c2ccc(NC(=O)N3CCSc4nc(C)cc(C)c43)cc2)c(Cl)c1 | inactive: -3.68% | 
42 | Cc1cccc(C(c2sc3nc(-c4ccco4)nn3c2O)N2CCN(c3ccccc3)CC2)c1 (configuration not stated) | inactive: 1.12% | 
43 | CCOc1ccccc1CNS(=O)(=O)c1ccc(-c2coc(C)n2)cc1 | inactive: -10.9% | 
44 | O=C(C1CCCCC1)N1CC(=O)N2CCc3ccccc3C2C1 (configuration not stated) | inactive: 14.8% | 
45 | Cc1ccc(NC(=O)c2ccc(=O)n(CC(=O)Nc3cccc(C)c3)n2)cc1 | inactive: -9.02% | 
46 | Cc1cc(NC(=O)c2cccs2)cc(-c2nc3cc(Cl)ccc3o2)c1O | inactive: 3.64% | 
47 | C[C@@H]1CCO[C@H]2Cn3cc(C(=O)NCc4ccc(F)cc4F)c(=O)c(O)c3C(=O)N12 | inactive: 0.451% | 
